Experiment [1] has as its target T1, human CD47 expressed on cells (CHO-K1-CD47; endogenous on DLD1 and HT1080 cells) (human, UniProt Q08722).
T1 construct: whole, on cells
The experiment in a line: flow cytometry on HT1080-4-1BB cells (4-1BB and endogenous CD47), dilutions of supernatant, anti-4-1BB blocking antibody alone or with anti-CD47 blocking antibody, detection with anti-LILRB2 antibody. Here is the method:
(§1) The binding of the heterodimer to the 4-1BB and CD47 expressing cell line was determined following incubation of the cells with the heterodimer by immuno-staining of its LILRB2 domain using an anti-LILRB2 antibody, followed by flow cytometric analysis. For specificity testing, binding was determined in the absence or presence of an anti-CD47 blocking antibody, anti 4-1BB blocking antibody or a combination of both blocking antibodies.
(§2) Methods—Cells were incubated with serial dilutions of the produced heterodimers-containing supernatants for 20-30 minutes at 4° C., followed by immuno-staining with an antibody against PD1 or LILRB2 and analyzed by flow cytometry. In some cases, cells underwent pre-incubation with anti CD47 blocker antibody or anti-4-1BB blocker antibody prior to the incubation with the supernatants.

In experiment [2] the target is T2, biotin-conjugated human recombinant 4-1BB protein (GenScript) (human, UniProt Q07011 24-186, biotin-conjugated).
T2 construct: Detection reagent of the sandwich ELISA; also called biotinylated 4-1BB; 41BB-biotin
In words: sandwich ELISA: plate coated with HLA-G 5 ug/mL, purified heterodimer 0-50 ug/mL, detection with 41BB-biotin and streptavidin-HRP. On the procedure: (§3) Supernatants containing the heterodimer TSP214 or control supernatant (FIG. 28A) or purified TSP215 heterodimer (FIGS. 28B-C) were incubated in HLA-G, CD47 or BSA pre-coated 96-wells plates. Binding was detected by incubation with 41BB-biotin, followed by streptavidin-HRP and TMB substrate according to standard ELISA protocol using a plate reader at 450 nm, with reference at 620 nm.
(§4) Methods—Ninety-six-wells plates were pre-coated by incubating overnight at 4° C. with a recombinant CD47 protein, PDL1 protein, HLA-G protein or a mix of two proteins at equal-molar quantity. Following blocking and washing, serially diluted supernatant containing the produced PD1-4-3xsc1BBL, SIRPα-PD1-3xsc4-1BBL, 2xLILRB2-3xsc4-1BBL or LILRB2-SIRPα-3xsc4-1BBL heterodimers were added to the relevant pre-coated wells. Following an additional washing step, biotinylated 4-1BB or rabbit anti-anti-SIRPα antibody was added and allowed to bind to the 4-1BBL arm or SIRPα arm, respectively, of the heterodimer. The plates were washed again and streptavidin-HRP or goat anti-rabbit IgG antibody-HRP was added. Detection was effected with a TMB substrate according to standard ELISA protocol using a plate reader (Thermo Scientific, Multiscan FC).
No binding was detected to control plates coated with BSA only.
(In an ELISA, binding on a coated surface is turned into a signal by an enzyme label.)

Experiment [3] concerns the target T3, human 4-1BB expressed on HT1080-4-1BB cells (human, UniProt Q07011 24-255).
T3 construct: whole, on cells; also called HT1080 4-1BB overexpressing cells
The experiment in a line: flow cytometry on HT1080-4-1BB cells (4-1BB and CD47), dilutions of supernatant, with or without anti-CD47 blocking antibody, detection with anti-LILRB2 antibody. On the procedure:
as §1, §2

Another experiment addresses T4, BSA (UniProt P02769).
T4 construct: Negative control coating of the ELISA; also called BSA only control plates
In words: sandwich ELISA: plate coated with BSA 10 ug/mL, purified heterodimer 0-50 ug/mL, detection with 41BB-biotin and streptavidin-HRP. On the procedure: as §3, §4
Chain of BSA (P02769 25-607 limits assumed): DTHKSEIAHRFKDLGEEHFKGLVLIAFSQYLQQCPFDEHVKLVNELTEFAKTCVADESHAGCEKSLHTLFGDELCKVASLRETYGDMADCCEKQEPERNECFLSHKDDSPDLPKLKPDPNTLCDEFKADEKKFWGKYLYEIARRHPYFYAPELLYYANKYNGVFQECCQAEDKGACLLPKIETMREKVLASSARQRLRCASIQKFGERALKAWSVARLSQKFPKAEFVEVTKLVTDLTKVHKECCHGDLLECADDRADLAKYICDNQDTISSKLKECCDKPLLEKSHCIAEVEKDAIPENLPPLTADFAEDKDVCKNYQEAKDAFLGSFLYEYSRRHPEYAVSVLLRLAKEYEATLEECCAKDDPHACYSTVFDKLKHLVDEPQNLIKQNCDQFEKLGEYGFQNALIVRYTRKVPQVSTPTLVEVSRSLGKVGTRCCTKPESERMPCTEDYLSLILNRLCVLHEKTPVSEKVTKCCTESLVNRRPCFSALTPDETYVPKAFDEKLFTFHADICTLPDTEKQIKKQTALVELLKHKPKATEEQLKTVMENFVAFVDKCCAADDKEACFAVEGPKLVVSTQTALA

Chain of UniProt Q08722 (Q08722 19-323): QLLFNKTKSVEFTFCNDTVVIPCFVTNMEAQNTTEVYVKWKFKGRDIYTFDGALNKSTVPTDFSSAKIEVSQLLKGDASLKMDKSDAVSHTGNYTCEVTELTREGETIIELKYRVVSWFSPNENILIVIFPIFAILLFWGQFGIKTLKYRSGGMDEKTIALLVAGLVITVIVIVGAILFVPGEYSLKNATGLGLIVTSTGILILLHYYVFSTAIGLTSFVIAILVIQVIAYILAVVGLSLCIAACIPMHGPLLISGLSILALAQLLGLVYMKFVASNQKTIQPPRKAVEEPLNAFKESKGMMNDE

B1: LILRB2-SIRPα-Fc-3xsc4-1BBL heterodimer TSP215 (SEQ ID NOs: 138 and 85) (Fc fusion)
chain 1: QTGTIPKPTLWAEPDSVITQGSPVTLSCQGSLEAQEYRLYREKKSASWITRIRPELVKNGQFHIPSITWEHTGRYGCQYYSRARWSELSDPLVLVMTGAYPKPTLSAQPSPVVTSGGRVTLQCESQVAFGGFILCKEGEEEHPQCLNSQPHARGSSRAIFSVGPVSPNRRWSHRCYGYDLNSPYVWSSPSDLLELLVPGVSKKPSLSVQPGPVVAPGESLTLQCVSDVGYDRFVLYKEGERDLRQLPGRQPQAGLSQANFTLGPVSRSYGGQYRCYGAHNLSSECSAPSDPLDILITGQIRGTPFISVQPGPTVASGENVTLLCQSWRQFHTFLLTKAGAADAPLRLRSIHEYPKYQAEFPMSPVTSAHAGTYRCYGSLNSDPYLLSHPSEPLELVVSGGGGSGGGGSGGGGS[human IgG4 Fc with S228P L235E Y349C T366W (EU numbers) omitted here]
chain 2: [about 350 residues omitted here]GGGGSGGGGSESKYGPPCPPCPAPEFEGGPSVFLFPPKPKDTLMISRTPEVTCVVVDVSQEDPEVQFNWYVDGVEVHNAKTKPREEQFNSTYRVVSVLTVLHQDWLNGKEYKCKVSNKGLPSSIEKTISKAKGQPREPQVYTLPPSQCEMTKNQVSLSCAVKGFYPSDIAVEWESNGQPENNYKTTPPVLDSDGSFFLVSRLTVDKSRWQEGNVFSCSVMHEALHNHYTQKSLSLSLGKGGGGSGGGGSAASPRLREGPELSPDDPAGLLDLRQGMFAQLVAQNVLLIDGPLSWYSDPGLAGVSLTGGLSYKEDTKELVVAKAGVYYVFFQLELRRVVAGEGSGSVSLALHLQPLRSAAGAAALALTVDLPPASSEARNSAFGFQGRLLHLSAGQRLGVHLHTEARARHAWQLTQGATVLGLFRVTPEIPAGLPSPRSEGGGGSGGGGSGGGGSAASPRLREGPELSPDDPAGLLDLRQGMFAQLVAQNVLLIDGPLSWYSDPGLAGVSLTGGLSYKEDTKELVVAKAGVYYVFFQLELRRVVAGEGSGSVSLALHLQPLRSAAGAAALALTVDLPPASSEARNSAFGFQGRLLHLSAGQRLGVHLHTEARARHAWQLTQGATVLGLFRVTPEIPAGLPSPRSEGGGGSGGGGSGGGGSAASPRLREGPELSPDDPAGLLDLRQGMFAQLVAQNVLLIDGPLSWYSDPGLAGVSLTGGLSYKEDTKELVVAKAGVYYVFFQLELRRVVAGEGSGSVSLALHLQPLRSAAGAAALALTVDLPPASSEARNSAFGFQGRLLHLSAGQRLGVHLHTEARARHAWQLTQGATVLGLFRVTPEIPAGLPSPRSE
notes: Knob-into-hole hIgG4 Fc heterodimer made in Expi293F cells; also called DSP215; LILRB2-SIRPα-sc3x4-1BBL heterodimer
Regarding B1, the binding result is recorded as “binds” in experiment [1], “binds” in experiment [2], “binds” in experiment [3] and “no binding (tested: 50 ug/mL)” with BSA.

The values are drawn from US20220267409A1 (KAHR MEDICAL, published 2022).
